Results from PubChem BioAssay AID995 (National Center for Advancing Translational Sciences (NCATS), 2007).
The campaign covered roughly 72,000 compounds. About 710 (0.99%) were called active. The inconclusive results got no clear call from the source; some entries with a clear call stand among them for comparison. The call rests on the fitted dose curve; in most records, active means well fitted inhibition curve with a large enough effect; inconclusive means small, poorly fitted or top-dose-only effect; inactive means no such curve, though single readings can be large or run the other way. Potencies of inconclusive entries are left out as doubtful fits.

experiment: qHTS Assay for Inhibitors of the ERK Signaling Pathway using a Homogeneous Screening Assay; conditions: HEK293-V1b, vasopressin-stimulated pERK AlphaScreen; activity, negative = inhibition: at 57.5 µM (top of the series) unless noted; further: nearly all actives have a fitted effect of over 55% in size
In short: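 Phosphorylated ERK1/2 detected via AlphaScreen bead proximity in lysates of V1b-expressing HEK293 cells given 25 nM vasopressin for 5 min after 30 min compound exposure (37 °C). AC50 from Hill equation; basal DMSO 0%, vasopressin 100%.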
On the % scale 0 is the no-effect control and ±100 the full control effect; potency means the concentration at half of the fitted maximal effect; tags describe the fitted curve by direction and shape.

Row | SMILES | Potency | activity, negative = inhibition
1 | CCN(CC)S(=O)(=O)c1csc(C(=O)Nc2ccccn2)c1 | inconclusive [inhibitor, single point] | –
2 | Cc1occc1C(=O)Nc1ccccc1NC(=O)c1ccoc1C | inconclusive [inhibitor, single point] | –
3 | CC(C)(C)c1ccc(OCC(=O)NCc2ccco2)cc1 | inconclusive [inhibitor, full curve, poor fit] | –
4 | CN(C)c1ncnc2ccc(-c3cccc(NS(C)(=O)=O)c3)cc12 | inconclusive [inhibitor, partial curve] | –
5 | Cc1nc(NCCCn2ccnc2)c2ccccc2n1 | – | inactive: 0.462%
6 | COc1ccccc1N=c1oc2cc(O)ccc2cc1C(=O)NCC1CCCO1 (centres undefined) | inconclusive [inhibitor, partial curve, poor fit] | –
7 | O=C1c2ccccc2-c2cc([N+](=O)[O-])c([N+](=O)[O-])cc21 | inconclusive [inhibitor, single point] | –
8 | CN(C)CCCN1c2ccccc2C(C)(C)c2ccccc21 | – | inactive: 6.33% [at 11.5 µM]
9 | COc1ccccc1N1CCN(C(=O)CSc2ncccc2-c2nc3ccccc3[nH]2)CC1 | inconclusive [inhibitor, single point] | –
10 | Cc1ccccc1Cc1c(C)nc2c(C(=O)NCc3ccco3)cnn2c1C | inconclusive [inhibitor, single point] | –
11 | CC(=O)OC1CC2C(C)(C)C(O)CCC2(C)C2CC[C@]3(C)C(=CC(=O)OC3c3ccoc3)C12C (some centres undefined) | – | inactive: 19%
12 | COc1cc(NC(=O)c2ccc3c(=O)n(Cc4ccco4)c(=S)[nH]c3c2)cc(OC)c1OC | inconclusive [inhibitor, partial curve] | –
13 | COc1cccc(-c2ccc3ncnc(NCc4cccs4)c3c2)c1 | active: 15.8 µM | –
14 | Cn1c(=O)c2c(nc(CN3CCC(C(N)=O)CC3)n2Cc2c(F)cccc2Cl)n(C)c1=O | – | inactive: -0.511%
15 | Cc1ccc(C)c(C(=O)c2c(C)nc3sccn23)c1 | inconclusive [inhibitor, partial curve, poor fit] | –
16 | CO[C@@]12C[C@@H](COC(=O)c3cncc(Br)c3)CN(C)[C@H]1Cc1cn(C)c3cccc2c13 | inconclusive [inhibitor, single point] | –
17 | COc1cccc(C2C(C#N)=C(N)OC(C(C)(C)C)=C2C#N)c1 (centres undefined) | inconclusive [inhibitor, partial curve] | –
18 | N#Cc1ccccc1NC(=O)c1ccccc1OCC(=O)NCc1ccco1 | – | inactive: -27.2%
19 | Cc1nc(N2CCC3(CC2)OCCO3)c2nnn(Cc3ccccc3F)c2n1 | inconclusive [inhibitor, single point] | –
